The values that follow come from publication PMC5892938.

The list shows a part of the results. At the low end of the ranking the order means little.

This experiment deals with GST-SBP-SLBP (stem-loop binding protein) (UniProt Q14493). Kind of experiment: targeted RNA Bind-n-Seq.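 Further: DESeq read counts versus GST-SBP nonspecific binding control pulldown.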 The note with it: RBNS binding buffer: 25 mM Tris pH 7.5, 150 mM KCl, 3 mM MgCl2, 0.1% Tween, 0.5 mg/mL BSA, 1 mM DTT; 27 nM protein, 750 pM RNA pool; temperature not stated; high values mean tight binding.
For “GGUCACGUCUCAAUCAACUCUUUUUCCAGGGAAAACCCUGGCUUAUUCAACAGCUCGCAGUCAAG”, the binding signal (log2 fold change) was -0.118.

Take “GGUCACGUCUCAAUCAACUCUAACGAGGGGGGGAAAACCCCUUUACCCUCUAUAUCAACAGCUCGCAGUCAAG”: the binding signal (log2 fold change) came out at 0.308.

Regarding “GGUCACGUCUCAAUCAACUCAACUUCAGGAGUUUGCUCCUGCAAUCUCAACAGCUCGCAGUCAAG”, the binding signal (log2 fold change) is 0.0527.

Regarding “GGUCACGUCUCAAUCAACUCAAUCCCAGGAGUUUGCUCCUGUAAAUUCAACAGCUCGCAGUCAAG”, the binding signal (log2 fold change) was determined as 0.15.

In the case of “GGUCACGUCUCAAUCAACUCAUCCCCCAGGGAAAGCCCUGGCUAUUUCAACAGCUCGCAGUCAAG”, the binding signal (log2 fold change) amounted to 0.248.

Regarding “GGUCACGUCUCAAUCAACUCAUUCUCAGGAGUUUUCUCCUGCUAAGUCAACAGCUCGCAGUCAAG”, the binding signal (log2 fold change) is 0.13.

Consider “GGUCACGUCUCAAUCAACUCUUCUUCAGGAGUUUUCUCCUGCAAUGUCAACAGCUCGCAGUCAAG”, for which the binding signal (log2 fold change) was -0.0451.

For the sequence “GGUCACGUCUCAAUCAACUCAUUCCCAGGAGUUUACUCCUGUAUAUUCAACAGCUCGCAGUCAAG”, the binding signal (log2 fold change) was 0.0758.

As for “GGUCACGUCUCAAUCAACUCAUCUCCAGGAGUUUGCUCCUGUAAAUUCAACAGCUCGCAGUCAAG”, the binding signal (log2 fold change) was -0.0701.

On to “GGUCACGUCUCAAUCAACUCAUCGUCCAGGGAAAACCCUGGUAAUCUCAACAGCUCGCAGUCAAG”, for which the binding signal (log2 fold change) came to 0.172.

Turning to “GGUCACGUCUCAAUCAACUCAACUCCAGGAGUUUCCUCCUGUUUAUUCAACAGCUCGCAGUCAAG”, the binding signal (log2 fold change) is -0.00726.

In the case of “GGUCACGUCUCAAUCAACUCACACGAGGGGGGGAAAACCCCUUUACCCUCAUUCUCAACAGCUCGCAGUCAAG”, the binding signal (log2 fold change) is -5.34e-05.

Take “GGUCACGUCUCAAUCAACUCAUACGAGGGGGGGAAAACCCCUUUACCCUCAUUCUCAACAGCUCGCAGUCAAG”: the binding signal (log2 fold change) was -0.128.

“GGUCACGUCUCAAUCAACUCAAGUCCAGGAGUUUCCUCCUGCUAAUUCAACAGCUCGCAGUCAAG”: the binding signal (log2 fold change) was -0.089.

As to “GGUCACGUCUCAAUCAACUCUUCGCCAGGAGUUUUCUCCUGCUUUUUCAACAGCUCGCAGUCAAG”, the binding signal (log2 fold change) is -0.0267.

With “GGUCACGUCUCAAUCAACUCUUUUCCAGGAGUUUUCUCCUGCUUUCUCAACAGCUCGCAGUCAAG”, the binding signal (log2 fold change) is -0.018.

Take “GGUCACGUCUCAAUCAACUCAAUCCCCAGGGAAACCCCUGGCUUAUUCAACAGCUCGCAGUCAAG”: the binding signal (log2 fold change) came to 0.24.

For “GGUCACGUCUCAAUCAACUCUUCGGAGGGGGGGAAAACCCCUUUACCCUCAACCUCAACAGCUCGCAGUCAAG”, the binding signal (log2 fold change) is 0.265.

Take “GGUCACGUCUCAAUCAACUCAAUCCCAGGAGUUUGCUCCUGUAUUCUCAACAGCUCGCAGUCAAG”: the binding signal (log2 fold change) amounted to 0.268.

As to “GGUCACGUCUCAAUCAACUCAUUUCCAGGAGUUUCCUCCUGUUUUCUCAACAGCUCGCAGUCAAG”, the binding signal (log2 fold change) was 0.12.

Consider “GGUCACGUCUCAAUCAACUCAAUUCCCAGGGAAACCCCUGGCAUUCUCAACAGCUCGCAGUCAAG”, for which the binding signal (log2 fold change) was 0.24.

“GGUCACGUCUCAAUCAACUCAUCCCCCAGGGAAACCCCUGGCAUAUUCAACAGCUCGCAGUCAAG”: the binding signal (log2 fold change) was -0.0631.

On to “GGUCACGUCUCAAUCAACUCUAUUUCCAGGGAAAGCCCUGGUAUAUUCAACAGCUCGCAGUCAAG”, for which the binding signal (log2 fold change) was -0.0286.

On to “GGUCACGUCUCAAUCAACUCAUUAGAGGGGGGGAAAACCCCUUUGCCCUCAAAAUCAACAGCUCGCAGUCAAG”, for which the binding signal (log2 fold change) turned out to be 0.487.

For the sequence “GGUCACGUCUCAAUCAACUCUAUUCCCAGGGAAAGCCCUGGUUAACUCAACAGCUCGCAGUCAAG”, the binding signal (log2 fold change) was -0.202.

In the case of “GGUCACGUCUCAAUCAACUCAUCUUCCAGGGAAAACCCUGGCAAACUCAACAGCUCGCAGUCAAG”, the binding signal (log2 fold change) is -0.00365.

On to “GGUCACGUCUCAAUCAACUCGUCUUCAGGAGUUUCCUCCUGCUAUUUCAACAGCUCGCAGUCAAG”, for which the binding signal (log2 fold change) is 0.00339.

For “GGUCACGUCUCAAUCAACUCUAUCCCCAGGGAAAUCCCUGGUUUUCUCAACAGCUCGCAGUCAAG”, the binding signal (log2 fold change) was -0.141.

As to “GGUCACGUCUCAAUCAACUCUUCAGAGGGGGGGAAAACCCCUUUGCCCUCAUCAUCAACAGCUCGCAGUCAAG”, the binding signal (log2 fold change) was 0.0336.

On to “GGUCACGUCUCAAUCAACUCUAUCCCCAGGGAAAGCCCUGGCUUUCUCAACAGCUCGCAGUCAAG”, for which the binding signal (log2 fold change) is 0.0525.

Take “GGUCACGUCUCAAUCAACUCAACUCCCAGGGAAAGCCCUGGUUAAUUCAACAGCUCGCAGUCAAG”: the binding signal (log2 fold change) worked out at 0.118.

Regarding “GGUCACGUCUCAAUCAACUCUAUUCCCAGGGAAAGCCCUGGCAUUCUCAACAGCUCGCAGUCAAG”, the binding signal (log2 fold change) came to 0.221.

As for “GGUCACGUCUCAAUCAACUCUUCGUCAGGAGUUUUCUCCUGCUUUUUCAACAGCUCGCAGUCAAG”, the binding signal (log2 fold change) is -0.0628.

In the case of “GGUCACGUCUCAAUCAACUCAAUUCCCAGGGAAAACCCUGGCUUUCUCAACAGCUCGCAGUCAAG”, the binding signal (log2 fold change) amounted to 0.0802.

For the sequence “GGUCACGUCUCAAUCAACUCAACUUCAGGAGUUUCCUCCUGCAUUCUCAACAGCUCGCAGUCAAG”, the binding signal (log2 fold change) amounted to 0.0115.

As for “GGUCACGUCUCAAUCAACUCUACUCCCAGGGAAAUCCCUGGUAUUUUCAACAGCUCGCAGUCAAG”, the binding signal (log2 fold change) worked out at 0.0643.

In the case of “GGUCACGUCUCAAUCAACUCUUUCCCCAGGGAAACCCCUGGCAAUGUCAACAGCUCGCAGUCAAG”, the binding signal (log2 fold change) worked out at 0.196.
